Structures can show the parent of a compound that is named as a salt. Where two headings read alike, the source gives them in different places. Entries with a single value are a further part of the results.

Drawing on US8809372B2, “Pyridine derivatives” (Endo Pharmaceuticals, Inc., priority 2011, dated 2014), this text covers melting point for 1 molecule.

Regarding `CC(O)(c1ccncc1)c1cnc(-c2ccc(F)cc2)s1` (racemic) (as salt: sulfonic acid salt) [Example 7, 1-(2-(4-Fluorophenyl)thiazol-5-yl)-1-(pyridin-4-yl)ethanol], the melting point lay within 181 to 184 °C (4-methylbenzenesulfonic acid salt) and 165 to 167 °C (benzenesulfonic acid salt).

By melting point is commonly meant the temperature, or range, at which the solid turns liquid.
